Data: ChEMBL document CHEMBL4888484, “Replenishing the malaria drug discovery pipeline: Screening and hit evaluation of the MMV Hit Generation Library 1 (HGL1) against asexual blood stage Plasmodium falciparum ,using a nano luciferase reporter read-out” (2022)
In all, about 150,000 compounds went through this assay and about 540 (0.36%) showed an effect of 50% or more. This is one part of the list.

system: Plasmodium falciparum; test: Primary screen in NF54 nanoGlo assay, in single point, at 2uM, 72h; a lower Z score goes with more inhibition; assay type: functional, Erythrocyte; conditions: timepoint 72 hour

Compound | % Inhibition | Z score
O=C(NC[C@H]1Cc2ccccc2CN1)C(F)(F)F | -4% | 0.43
Cc1occc1C(=O)NCCN1Cc2ccccc2O[C@H](c2ccccc2F)C1 | -9% | 1.71
CCN1C[C@]2(CCCN(C(=O)c3ccccc3N3CCCC3)C2)CCC1=O | 7% | -1.03
CC1CCCC(C)N1S(=O)(=O)c1ccc(NS(=O)(=O)c2cccc(C(=O)O)c2)cc1 (centres undefined) | 4% | -0.38
O=C1O[C@@H]2C[C@H]3C[C@@H]2[C@@H]1[C@H]3C(=O)N1CCCc2ccccc21 | 6% | -0.74
Cc1cc(-c2cccc(C(=O)NCCc3nnc(C)s3)c2)cc(C)n1 | 6% | -0.8
COc1ccc(N2C(=O)N[C@@H](CCC(=O)N3CCN(C)CC3)C2=O)cc1 | -11% | 1.46
COc1ccc(NC(N)=NCCCn2cc(C)cn2)cc1 | 2% | -0.41
CCN1CCN(C(=O)CCN(CC(C)C)c2nc(-c3ccccc3Cl)nc3ccccc23)CC1 | -2% | 0.39
O=C(CO)N1CCC[C@H](S(=O)(=O)N2CCc3ccccc32)C1 | -17% | 1.67
C=C[C@H]1CCN(C(=O)NCCc2c[nH]cn2)C1 | -6% | 1.22
Cc1ccc(CNC(=O)N2CC(N(Cc3cccnc3)S(C)(=O)=O)C2)cc1 | -1% | 0.2
C[C@H](NS(=O)(=O)CCC1CCOCC1)c1ccc(Cl)cn1 | 6% | -1.15
N#Cc1ccc(OCCN2C(=O)NC(C3CC3)(C3CC3)C2=O)cc1 | 2% | -0.21
CCOC1CC(NC(=O)Cc2ccc(Cl)s2)C12CCOCC2 (centres undefined) | -20% | 2.19
COc1ccc(/C=C/c2sc3ccc(O)cc3[n+]2C)cc1 | -15% | 2.06
Cn1nc(-c2ccccn2)cc1NC(=O)N1C[C@@H]2[C@H](C1)[C@H]1CC[C@@H]2O1 | -7% | 1.31
CC(NC(=O)CCc1cccs1)C1CCCO1 (centres undefined) | -5% | 0.53
Cn1cncc1CCC(=O)N1CCc2c(Cl)cc(Cl)cc2C1 | -10% | 0.83
O=C(c1ccon1)N1CCC[C@H](c2cc(F)ccc2F)C1 | 2% | -0.21
Cc1nc2sc(C(=O)Nc3ccc4ccccc4c3)c(N)c2c(C)c1C | 32% | -0.84

Compound | % Inhibition | Z score
Cc1ccc(OCCNc2cc([C@H]3C[C@H](N)C3)nc(C3CC3)n2)cc1C | 35% | -2.3
CC(=O)N1CCC(C(=O)N(Cc2ccco2)c2ccc(C)cc2)CC1 | -9% | 1.16
O=S(=O)(c1cccc2nsnc12)N1CC(n2cnnc2[C@@H]2CCCO2)C1 | -13% | 1.68
CC1CCN(CN2C(=O)C3(OCC=CCO3)c3ccccc32)CC1 | -10% | 1.17
COCCn1c(CNC(=O)c2ccccc2OC)nc2cccnc21 | -3% | 0.39
O=C(Nc1cnccc1O)c1ccc(N2CC=CC2)cc1 | -14% | 2.53
COc1cc(NC(=O)[C@@H]2CCCN2S(C)(=O)=O)cc(-n2cnnn2)c1 | 9% | -1.31
CCOc1ccc(NC(=O)[C@H]2CCCN(C(=O)C(C)C)C2)cc1S(=O)(=O)N1CCOCC1 | 0% | -0.01
CCO[C@@H](C)c1noc(COc2cccnc2C)n1 | -4% | 0.58
CC(C)[C@H](O)C(=O)N1CCC(CNC(=O)CC2CC2)CC1 | -7% | 1.12
O=C(c1ccc(Cl)c(Cl)c1)N1CCC(Cc2ccc3c(c2)OCO3)CC1 | -10% | 1.36
COc1ccccc1[C@@H]1CNC(=O)c2nc(C3=CCCCC3)[nH]c2C1 | 0% | -0.07
COc1c(C)cnc(CN2CCC(N(C)C(=O)N[C@@H](C)CC3CC3)CC2)c1C | -9% | 1.32
CCn1c(C)cc(C)c(C(=O)Nc2cc(-c3nnc(C)o3)ccc2OC)c1=O | -7% | 1.15
CCC(NC(C)c1ccc(C)s1)C(=O)N1CCOCC1 (centres undefined) | -5% | 1
CC1CCN(CC2CCCN(C(=O)C3CCCc4ccccc43)C2)CC1 (centres undefined) | -12% | 1.66
CC(=O)N1CCCN(C(=O)[C@@H]2COc3ccccc3O2)CC1 | -7% | 0.91
CCc1cc(C(=O)N[C@@H](C)c2ccccc2)c2c(C3CC3)nn(Cc3ccccc3)c2n1 | 39% | -5.23
C[C@H](CCC(=O)N1CCc2ccccc2C1)[C@H]1CC[C@H]2[C@@H]3[C@H](O)C[C@@H]4C[C@H](O)CC[C@]4(C)[C@H]3C[C@H](O)[C@]12C | -8% | 1.05
CCc1nocc1CN(C)C(=O)c1onc2c1CCCC2 | -11% | 1.55
CC(C)(Oc1ccc([C@H]2CC2(Cl)Cl)cc1)C(=O)Nc1nnc(C2CC2)s1 | -1% | 0.12

Compound | % Inhibition | Z score
CN(CCn1cc(C(=O)NCc2ccncc2)nn1)Cc1cc2c(cc1Cl)OCO2 | 1% | -0.15
Cc1[nH]c2ccccc2c1C1C(CC(=O)N(Cc2ccccc2)C2(C(=O)Nc3ccc(N(C)C)cc3)CCCC2)C1(C)C (centres undefined) | -32% | 3.72
Cc1nc2c(c(N3CCCC3)n1)CN(C(=O)Nc1cccc3ccccc13)CC2 | -2% | 0.22
Cn1c(CN2CCN(C(=O)C(C)(C)C)CC2(C)C)nnc1C1CC1 | -8% | 1.36
Cc1ccc(N(C)S(=O)(=O)c2ccc(-c3ccc(=O)[nH]n3)o2)cc1 | -6% | 0.6
CC(C)(C)c1ncc(C(=O)N2CCC[C@@H]2C(=O)O)s1 | 2% | -0.25
O=C(NCC#C[C@@H]1CCCCO1)c1cccnc1C(F)F | 2% | -0.25
O=C(c1ccc2ccccc2n1)N1CCN(S(=O)(=O)c2ccccc2)CC1 | -3% | 0.36
Cc1ccc(CC(=O)N2CCC3(CCN(C)CC3)C2)cc1 | -7% | 0.88
CC[C@@H](CO)NC(=O)NC1CCCC(OC)C1 (some centres undefined) | -9% | 0.9
c1csc(-c2cc(CN3CCOC[C@H]3c3nc[nH]n3)no2)c1 | 1% | -0.11
Cc1cnn(C)c1NC(=O)N(C)Cc1ncc(Br)cn1 | 0% | -0.04
Cc1nn(C)c(C)c1CNC(=O)c1ccc(-c2nc(CN3CCc4ccccc43)c(C)o2)cc1 | -2% | 0.35
Cc1ccc(S(=O)(=O)Cc2nc(-c3ccc(C(=O)NCc4ccc(C)o4)cc3)oc2C)cc1 | 34% | -4.92
OC[C@H]1CCCN(C2CCN(Cc3nc(-c4cccs4)no3)CC2)C1 | 3% | -0.39
CCN(CC)Cc1nc(C2(NS(=O)(=O)N(C)C)CCCC2)no1 | 0% | -0.08
O=C(NCCCNC(=O)C1CCCC1)C1CCCC1 | 7% | -0.82
O=C(Nc1cccc2c1CCCC2)c1cnccn1 | 12% | -1.36
CC(C)(C)C(=O)CC(=O)Nc1cc(N)ccc1Cl | -21% | 2.69
CCOc1ccccc1NC(=O)N1CCCn2nc(C)cc21 | 5% | -0.63
CCOCCN(C)Cc1cnc2ccc(Br)cn12 | -19% | 2.12

Compound | % Inhibition | Z score
CC(C)Cc1nnc(NC(=O)[C@@H]2Cc3ccccc3C(=O)O2)s1 | -4% | 0.6
CC(=O)c1ccc(N2CCN(/C(=N\c3cccc(C(=O)O)c3)NC[C@H]3CCCO3)CC2)cc1 | -24% | 2.24
CCn1cc(CC(=O)NC23CCCC2N(c2nc(C)nc(N(C)C)n2)CC3)nn1 (centres undefined) | 13% | -1.62
CCc1ccccc1CC(=O)N(Cc1cccnc1)[C@H]1CCS(=O)(=O)C1 | -1% | 0.19
CC(C)c1nccn1CC(=O)N[C@H]1CCN(c2ncc[nH]c2=O)C1 | 0% | -0.02
O=C(C1CCOCC1)N1CCOc2ccc(N3CCOCC3)cc2C1 | -8% | 1.53
Cc1cccnc1C(F)(F)C(=O)Nc1cc(C)c(O)c(C)c1 | 32% | -1.21
CC(C)c1c(C(=O)N2CCN(c3ccc(F)cc3)CC2)cnn1-c1nccc(-c2cccs2)n1 | 18% | -2.31
COc1nc2c(cc1CN[C@@H](C)CC(F)(F)F)C(=O)N(C1CCCC1)C2 | -10% | 1.38
Cc1ccc(C(=O)N2CCC3(CC2)C[C@@H]3NC(=O)C(C)C)cc1F | -12% | 1.53
COc1ccc(C2=C(C)C(N3CCN(c4ccc(F)cc4)CC3)=NS2(=O)=O)cc1 | -12% | 1.69
Cn1ccc2ccn(CCNC(=O)CNC(=O)OCc3ccccc3)c(=O)c21 | -4% | 0.71
Cc1cc(C(=O)N[C@@H](CO)CC(C)C)ns1 | -6% | 0.92
CCCN(CCC)S(=O)(=O)c1sc2c(c1C(=O)O)CCNC2 | -1% | 0.16
CC[C@H]1COCCN1C(=O)c1ccc2sccc2c1 | 1% | -0.2
CCc1cc(N2CCC[C@H](Nc3ccc4c(c3)OCCO4)C2)nc(C)n1 | -17% | 3.53
COc1ccc(C(C)=O)cc1CN1CCCS1(=O)=O | -4% | 0.69
CC[C@@H](CO)NCc1cccc(OC)c1OCC(=O)NC(C)(C)C | 42% | -5.63
CC(NC(=O)CN1CCCCC1Cn1cncn1)c1cccs1 (centres undefined) | -1% | 0.13
